# Laboratory results reported in PubChem BioAssay (NCATS).
# Values joined by “and” are separate entries in the source; they are usually repeats but may differ in a detail not shown here. Equal entries are not always repeated. Inconclusive means that the source gave no clear call. Such entries were picked first, then a sample of the others. Potencies beside an inconclusive call are fits to weak or partial responses and may not hold up. Active and inactive are the calls of the source. Calls come from the whole dose curve; as a rule, active = well fitted curve in the direction sought with a large enough effect; inconclusive = small, poorly fitted or top-dose-only effect, or another doubt; inactive = no such curve, though single readings can be large; an effect the other way counts as inactive or inconclusive.
# What was measured:
# [1] = qHTS of pediatric cancer cell lines to identify multiple opportunities for drug repurposing: Primary screen for TC32 cells (AID 1347089); note: nearly all actives have a fitted effect of over 60% in size
# Method in brief: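 TC32 cells, 500-1,000/well in growth medium, compound-treated 48 h at 37 °C; viability from CellTiter-Glo luminescence. Primary screen: MIPE 11-point (0.78 nM–46 µM final), NPC 8-point (0.59 nM–46 µM final); confirmatory at 11-point dilutions.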
# [2] = qHTS of pediatric cancer cell lines to identify multiple opportunities for drug repurposing: Primary screen for DAOY cells (AID 1347090); settings: DAOY medulloblastoma viability, CellTiter-Glo luminescence, 48 h; series mostly up to 46 µM; note: nearly all actives have a fitted effect of over 55% in size
# Method in brief: (§1)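 Viability measured as metabolically active cells via CellTiter-Glo luminescence following 48 hours of compound exposure, 11-point dilutions in confirmatory testing. 500-1,000 cells/well plated 5 hours before dosing; controls were DMSO and 2.3 µM bortezomib.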
# [3] = qHTS of pediatric cancer cell lines to identify multiple opportunities for drug repurposing: Primary screen for SJ-GBM2 cells (AID 1347091)
# Method in brief: as §1
# Potency is the fitted concentration of half-maximal effect; tags give direction and shape of the fitted curve.
Structure (SMILES),Potency [1],Potency [2],Potency [3]
O=C(CCc1ccc(O)cc1)c1c(O)cc(O)cc1O[C@@H]1O[C@H](CO)[C@H](O)[C@H](O)[C@H]1O,inactive,"inconclusive: 29.6 µM [cytotoxic, partial curve, poor fit]",–
CCN(CC)CCNC(=O)COc1ccc(OC)cc1,inactive,–,inactive
O=C(Nc1cc2cc[nH]c2cn1)c1ccccc1,"inconclusive: 20.8 µM [cytotoxic, partial curve, poor fit]",active: 14.8 µM,–
C#C[C@]1(O)CC[C@H]2[C@@H]3CCc4cc(O)ccc4[C@H]3CC[C@@]21C,"inconclusive: 33.3 µM [cytotoxic, single point]",–,"inconclusive: 26.6 µM [cytotoxic, single point]"
CC(C)CNc1ccnc(NCc2csc(-c3ccccc3)n2)n1,"inconclusive: 33 µM [cytotoxic, single point]",–,"inconclusive: 20.9 µM [cytotoxic, partial curve]"
CN(C)c1ccc(N=NS(=O)(=O)O)cc1,inactive,"inconclusive: 5.74 µM [cytotoxic, full curve]",–
CN(C)c1ccc(Nc2nc(N)n(C(=O)c3c(F)cccc3F)n2)cc1,"inconclusive: 1.31 µM [cytotoxic, full curve]","inconclusive: 14.8 µM [cytotoxic, partial curve]",–
CC(C=CC1=C(C)CCCC1(C)C)=CC=CC(C)=CC(=O)O,"inconclusive: 23.4 µM [cytotoxic, partial curve]","active: 7.43 µM and inconclusive: 3.72 µM [cytotoxic, partial curve, poor fit]","inconclusive: 18.7 µM [cytotoxic, single point]"
Nc1ccccc1NC(=O)c1ccc(CNC(=O)OCc2cccnc2)cc1,active: 8.29 µM,active: 4.69 µM,–
Oc1ccc(C=Cc2cc(O)cc(O)c2)cc1,–,"inconclusive: 23.5 µM [cytotoxic, partial curve, poor fit]",–
Cc1oncc1C(=O)Nc1ccc(C(F)(F)F)cc1,"inconclusive: 21 µM [cytotoxic, single point] and inconclusive: 14.7 µM [cytotoxic, partial curve]","inconclusive: 16.8 µM [cytotoxic, partial curve, poor fit] and inconclusive: 18.7 µM [cytotoxic, partial curve, poor fit]",inactive
O=c1cc(-c2ccccc2)oc2ccccc12,"inconclusive: 0.0855 µM [rising, partial curve, poor fit]",–,inactive
CCC1(c2ccccc2)C(=O)NCNC1=O,inactive,–,"inconclusive: 13.2 µM [cytotoxic, partial curve]"
CC(=O)O[C@]1(C(C)=O)CC[C@H]2[C@@H]3C=C(C)C4=CC(=O)CC[C@]4(C)[C@@H]3CC[C@@]21C,"inconclusive: 23.4 µM [cytotoxic, single point]",–,active: 14.8 µM
O=c1cc(N2CCOCC2)oc2c(-c3ccccc3)cccc12,"inconclusive: 5.87 µM [cytotoxic, partial curve, poor fit]","inconclusive: 5.9 µM [cytotoxic, partial curve]",–
CCCCc1ccc2nc(NC(=O)OC)[nH]c2c1,active: 117 nM and active: 47 nM,"inconclusive: 0.0187 µM [cytotoxic, full curve]",active: 1 nM and active: 106 nM
COC(=O)C1=C(C)NC(C)=C(C(=O)OCCN2CCN(C(c3ccccc3)c3ccccc3)CC2)C1c1cccc([N+](=O)[O-])c1 (centres undefined),"inconclusive: 33.3 µM [cytotoxic, single point]","inconclusive: 21.1 µM [cytotoxic, single point]","inconclusive: 26.6 µM [cytotoxic, single point]"
O=C1c2c(O)cc(O)cc2O[C@H](c2cc(O)c(O)c(O)c2)[C@H]1O,–,"inconclusive: 7.43 µM [cytotoxic, full curve]",–
CC(NCCC(c1ccccc1)c1ccccc1)c1ccccc1 (centres undefined),"inconclusive: 29.7 µM [cytotoxic, single point]","inconclusive: 26.6 µM [cytotoxic, single point]","inconclusive: 29.9 µM [cytotoxic, single point]"
CS(=O)(=O)CCNCc1ccc(-c2ccc3ncnc(Nc4ccc(OCc5cccc(F)c5)c(Cl)c4)c3c2)o1,"inconclusive: 33.3 µM [cytotoxic, partial curve, poor fit]","inconclusive: 26.6 µM [cytotoxic, single point]","inconclusive: 29.9 µM [cytotoxic, single point]"
